# Test results reported in PubChem BioAssay AID485294 (National Center for Advancing Translational Sciences (NCATS), 2010).
# The campaign covered roughly 370,000 compounds. About 150 (0.041%) were called active. This list was built around the results that the source calls inconclusive (neither active nor inactive); the mix of calls is not that of the screen. Calls follow the shape of the dose curve; as a rule, active = well fitted inhibition curve with a large enough effect; inconclusive = small, poorly fitted or top-dose-only effect; inactive = flat fitted curve, though single readings scatter. Potencies of inconclusive entries are left out as doubtful fits.
# Target: Beta-lactamase (Escherichia coli (strain K12)) (UniProt P00811)
# Test: qHTS Inhibitors of AmpC Beta-Lactamase (assay with detergent); also: nearly all actives have a fitted effect of over 25% in size;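 as to activity change, negative = inhibition: 0% = no-compound wells and -100% = no-enzyme wells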
# Conditions: AmpC hydrolysis of nitrocefin, absorbance 480 nm, 0.01% Triton; activity change, negative = inhibition: at 114 µM (top of the series)
# Summary of the method: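 AmpC (5.3 nM in the dispensed reagent) in 20 mM phosphate pH 7.0 with 0.01% (detergent screen) or 0.0001% Triton X-100 was preincubated with compounds for 15 min at room temperature. Nitrocefin was then added from an 800 uM solution, and hydrolysis was followed at 480 nm.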
# Potency is read from the fitted curve at half-maximal effect; tags tell the direction and shape of the fitted curve.
# Chain of UniProt P00811 (P00811 whole entry, looked up): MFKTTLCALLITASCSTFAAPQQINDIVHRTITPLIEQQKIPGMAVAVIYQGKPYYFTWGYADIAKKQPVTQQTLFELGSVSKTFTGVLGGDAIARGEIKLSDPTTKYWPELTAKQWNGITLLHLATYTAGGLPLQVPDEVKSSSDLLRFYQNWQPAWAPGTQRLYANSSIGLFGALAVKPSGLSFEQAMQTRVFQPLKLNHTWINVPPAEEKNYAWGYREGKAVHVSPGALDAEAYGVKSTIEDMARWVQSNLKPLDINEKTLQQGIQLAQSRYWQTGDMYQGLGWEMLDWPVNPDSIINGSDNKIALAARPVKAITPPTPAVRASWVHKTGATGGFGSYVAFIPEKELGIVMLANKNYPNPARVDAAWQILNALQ
SMILES,"activity change, negative = inhibition",Potency
COCCn1nnnc1C(c1ccccc1)N1CCN(c2ccccc2)CC1 (centres undefined),inactive: 1.31%,–
Cn1c(CCC(=O)OCC(=O)Nc2ccc(Oc3ccccc3)cc2)nc(=O)c2ccccc21,–,"inconclusive [inhibitor, partial curve, poor fit]"
COc1ccc(S(=O)(=O)N2CCOCC2)cc1NC(=O)c1cccc2c(=O)c(C)c(-c3ccccc3)oc12,inactive: -0.94%,–
COc1ccc(NC(=O)C(Cl)=C(Cl)Cl)cn1,–,"inconclusive [inhibitor, partial curve]"
Cc1cccn2c(=O)c(C(=O)NCCc3ccccc3)c(O)nc12,inactive: 18.7%,–
Cc1onc(C(=O)N2CCN(C(c3ccccc3)c3ccccc3)CC2)c1[N+](=O)[O-],–,"inconclusive [inhibitor, full curve]"
COc1ccc(-c2nsc(SCC(=O)Nc3ccc4c(c3)OCO4)n2)cc1,–,"inconclusive [inhibitor, full curve, poor fit]"
COc1ccc(CCNC(=O)C(=O)NCC(c2ccc3c(c2)OCO3)N2CCOCC2)cc1OC (centres undefined),inactive: -0.885%,–
CCc1ccccc1N(C1=NCCCS1)S(=O)(=O)c1ccc(C(C)(C)C)cc1,–,"inconclusive [inhibitor, full curve, poor fit]"
CC1CCN(C(=O)CSc2nnc3c(n2)[nH]c2ccccc23)CC1,inactive: 1.95%,–
Cc1ccc2c(c1)N(Cc1cccc(Cl)c1)C(=O)c1cccnc1O2,–,"inconclusive [inhibitor, partial curve]"
Cc1c(C(=O)NCCc2ccc(Cl)cc2)sc2nc3n(c(=O)c12)CCCC3,inactive: 2.76%,–
c1ccc2c(N3CCOCC3)nc(-c3ccncc3)nc2c1,–,"inconclusive [inhibitor, single point]"
O=c1[nH]c(=O)n(Cc2ccccc2)c(O)c1/C=N/NCCO,inactive: -0.799%,–
COc1cc([N+](=O)[O-])cc(/C=N/NC(=O)C(O)(c2ccccc2)c2ccccc2)c1O,–,"inconclusive [inhibitor, full curve, poor fit]"
O=C1NCCN(Cc2cccc(Oc3ccccc3)c2)C1CC(=O)N1CCCO1 (centres undefined),–,"inconclusive [inhibitor, full curve, poor fit]"
COc1ccc2occ(C(=O)c3cccs3)c2c1,–,"inconclusive [inhibitor, partial curve, poor fit]"
CC(=O)Nc1ccc(-c2csc(NC(=O)C3CSC4(C)CCC(=O)N34)n2)cc1 (centres undefined),–,"inconclusive [inhibitor, full curve, poor fit]"
COc1ccc(N2Cc3cccc(C(=O)Nc4ccc(F)cc4)c3C2=O)cc1,inactive: 1.37%,–
Cc1cccc(N2CCc3c2nc2ccc(Br)cc2c3N)c1,–,"inconclusive [inhibitor, partial curve]"
Cc1ccc(C(CC(=O)O)NC(=O)c2ccc(S(=O)(=O)N3CCCC3)cc2)cc1 (centres undefined),–,"inconclusive [inhibitor, full curve, poor fit]"
COc1ccc(C2C(=O)c3ccccc3C2=Nc2ccc(Br)cc2)cc1 (centres undefined),–,"inconclusive [inhibitor, partial curve]"

SMILES,"activity change, negative = inhibition",Potency
CN(CCOC(=O)c1ccc2c(c1)OCCO2)Cc1ccccc1,–,"inconclusive [inhibitor, full curve, poor fit]"
CCOc1ccccc1NC(=O)CSc1nnc2ccc(-c3cccnc3)nn12,–,"inconclusive [inhibitor, full curve]"
COC(=O)Cc1ccc(OCC(=O)Nc2ccc(OC(F)(F)F)cc2)cc1,–,"inconclusive [inhibitor, full curve, poor fit]"
O=C(O)CSc1ncnc2c1oc1ccccc12,inactive: 4.73%,–
COc1ccc(-n2ncc(C(=O)Nc3cccc(C(F)(F)F)c3)c2C2CCN(C(=O)OC(C)(C)C)CC2)cc1,inactive: 1.96%,–
NC(=O)CC(NC(=O)Cc1ccc(Cl)cc1)c1ccc(NC2CCCCCCC2)c([N+](=O)[O-])c1 (centres undefined),–,"inconclusive [inhibitor, full curve, poor fit]"
Cc1cccc(NC(=S)N2CCCCC2)c1,–,"inconclusive [inhibitor, partial curve, poor fit]"
Cc1cc(NC(=O)CCC(=O)N(CC(=O)NC2CCCC2)Cc2ccco2)no1,inactive: -1.29%,–
COc1ccc2[nH]c3c(NCCC4=CCCCC4)ncnc3c2c1,–,"inconclusive [inhibitor, single point]"
CCc1ccc(NC(=O)c2ccc(NC3=NC4CS(=O)(=O)CC4S3)cc2)cc1 (centres undefined),inactive: -4%,–
C#CCOCCOCCOCCNc1nc(N2CCN(C(=O)Cn3cc(CC(C)O)nn3)CC2)nc(N2CCN(C(=O)Cn3cc(CC(C)O)nn3)CC2)n1 (centres undefined),–,"inconclusive [inhibitor, full curve]"
COc1ccc(C(=O)Nc2cc3c(cc2OC)CCCC3)cc1Br,inactive: -2.35%,–
C/C(=N\Nc1nc2ccccc2[nH]1)c1cc2ccccc2o1,inactive: -3.25%,–
COc1ccc(NS(=O)(=O)c2ccc(NS(=O)(=O)c3cccc(C(=O)O)c3)cc2)cc1,inactive: 1.68%,–
O=C(CNC(=O)C1CCCCC1)OCc1cc(=O)oc2ccc3ccccc3c12,–,"inconclusive [inhibitor, full curve, poor fit]"
CC(C)c1ccc(S(=O)(=O)N2CCN(C(=O)C3CCCCC3)CC2)cc1,–,"inconclusive [inhibitor, full curve, poor fit]"
Cc1cc(C)c(C#N)c(SCc2nc3ccccc3[nH]2)n1,inactive: 2.19%,–
O=C(Nc1nccs1)c1ccc(Br)c(S(=O)(=O)N2CCOCC2)c1,–,"inconclusive [inhibitor, full curve, poor fit]"
O=C(O)Cn1cc(C(=O)c2cccs2)c2ccccc21,–,"inconclusive [inhibitor, partial curve]"
Nc1nc(CSC(=S)N2CCOCC2)nc(Nc2ccc(F)cc2)n1,inactive: -6.15%,–
COc1ccc(-c2sc3ccccc3c2C#CCCO)cc1,–,"inconclusive [inhibitor, partial curve, poor fit]"
CC(=O)c1ccc(S(=O)(=O)NC2CC(=O)N(c3cccc(F)c3)C2)cc1 (centres undefined),inactive: -14.3%,–
